# According to paper PMC4336329 (PLoS ONE, 2015):
# Out of some 310,000 compounds screened, about 14,000 (4.5%) showed an effect of 50% or more. The effect is printed as a negative number. The list shows a part of the results.
# Biological target: human ether-à-go-go-related gene (hERG) potassium channel (human, UniProt Q12809)
# Experiment: primary screen, population patch clamp on CHO cells stably expressing hERG
# 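Note: peak tail current of the secondary pulse compared with the same well before compound.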
# human ether-à-go-go-related gene (hERG) potassium channel, sequence (Q12809 whole entry, looked up): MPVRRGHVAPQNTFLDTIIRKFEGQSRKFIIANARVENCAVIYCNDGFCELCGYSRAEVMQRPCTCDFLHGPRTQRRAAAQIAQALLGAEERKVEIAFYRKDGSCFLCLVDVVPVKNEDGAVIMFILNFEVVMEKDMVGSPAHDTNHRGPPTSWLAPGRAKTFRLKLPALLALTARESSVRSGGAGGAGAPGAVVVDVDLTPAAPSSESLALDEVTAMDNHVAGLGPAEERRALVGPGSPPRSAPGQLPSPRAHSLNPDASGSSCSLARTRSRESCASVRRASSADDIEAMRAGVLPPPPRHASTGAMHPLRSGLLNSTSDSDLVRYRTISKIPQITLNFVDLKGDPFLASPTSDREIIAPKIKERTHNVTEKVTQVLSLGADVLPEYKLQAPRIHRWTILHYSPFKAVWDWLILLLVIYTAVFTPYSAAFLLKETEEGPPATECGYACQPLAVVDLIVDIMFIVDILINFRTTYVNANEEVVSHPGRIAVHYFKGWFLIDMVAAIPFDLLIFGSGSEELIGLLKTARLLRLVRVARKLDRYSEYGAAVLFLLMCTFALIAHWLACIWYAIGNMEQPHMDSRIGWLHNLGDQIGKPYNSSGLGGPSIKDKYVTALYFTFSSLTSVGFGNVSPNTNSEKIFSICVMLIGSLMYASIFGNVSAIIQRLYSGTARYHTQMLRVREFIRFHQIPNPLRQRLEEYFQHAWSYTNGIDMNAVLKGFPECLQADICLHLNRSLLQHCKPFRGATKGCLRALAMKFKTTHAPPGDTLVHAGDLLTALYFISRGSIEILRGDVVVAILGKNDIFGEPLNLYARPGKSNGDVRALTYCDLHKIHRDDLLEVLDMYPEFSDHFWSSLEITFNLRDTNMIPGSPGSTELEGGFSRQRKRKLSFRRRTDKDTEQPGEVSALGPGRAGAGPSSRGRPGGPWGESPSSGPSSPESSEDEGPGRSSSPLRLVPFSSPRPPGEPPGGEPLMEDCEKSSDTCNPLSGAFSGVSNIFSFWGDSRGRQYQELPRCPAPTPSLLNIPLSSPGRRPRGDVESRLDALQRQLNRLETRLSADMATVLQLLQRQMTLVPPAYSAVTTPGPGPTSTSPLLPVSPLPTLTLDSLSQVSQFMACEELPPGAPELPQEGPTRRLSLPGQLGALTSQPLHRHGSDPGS
row,Structure (SMILES),"hERG current change (%, negative = inhibition) at 10uM"
1,Cc1cc(=O)n2nc(N3CCC(C(=O)NCc4cccnc4)CC3)sc2n1,7.16%
2,O=C(OCCCC(=O)N1CCOCC1)c1ccccc1,6.46%
3,CCOC(=O)C(=O)N1CCN(c2ccccc2OC)CC1,6.36%
4,COCCNC(=O)c1onc(CS(=O)(=O)c2cc(C)cc(C)c2)c1C(=O)NCCOC,1.53%
5,CCOC(=O)C(N)CSC1CC(=O)N(c2ccc(OC)cc2)C1=O.Cl (stereo not shown),15.8%
6,NCCCCCNC(=O)/C=N\O,20.1%
7,CNc1ccc(OC)cc1-n1cnc(-c2ccc([N+](=O)[O-])cc2)c1,-11.1%
8,Cc1ccccc1OCC(=O)OCC(=O)NCc1ccco1,0.65%
9,COc1ccc(NC(=O)C2CCCN2c2nn3c(=O)cc(C)nc3s2)cc1 (stereo not shown),-6.54%
10,COc1cccc(CN(C(=O)c2ccccc2Cl)C2CCS(=O)(=O)C2)c1 (stereo not shown),8.05%
11,CC(C)c1nc(SCC(=O)Nc2ccc3c(c2)OCCO3)n[nH]1,-1.52%
12,CCCCOC(=O)c1ccc(Nc2ncnc3nc[nH]c23)cc1,14.4%
13,Cc1ccc(S(=O)(=O)N[C@@H](CCCCN)C(=O)CCl)cc1.Cl,-1.37%
14,CC1CC(C)(C)CC2(C1)NC(=O)N(CC(=O)NCCc1c[nH]c3ccccc13)C2=O (stereo not shown),9.47%
15,O=C(Nc1ccccc1)N(O)c1ccc(Cl)cc1,-6.08%
16,CCC(C)NC(=O)C1CCN(C(=O)c2ccccc2)CC1 (stereo not shown),4.48%
17,NS(=O)(=O)c1ccc(Nc2nc(-c3cccnc3)cs2)cc1,-2.97%
18,COc1ccc(/C=C2\SC(=O)N=C2N)cc1OC,21.7%
19,CC1(C)CC(=O)c2c(nc3ccccc3c2N)C1,-28.8%
20,COc1ccc2ncn(-c3ccccc3)c2c1,-7.39%
21,CCN(CC)C1CCN(C(=O)c2ccc(OC3CCN(Cc4ccccn4)CC3)cc2)C1 (stereo not shown),15.6%
22,Cc1ccccc1NC(=O)C1CC(=O)N(Cc2ccccc2)C1 (stereo not shown),-7.03%
23,Cc1cc2oc(C(=O)NC3CCS(=O)(=O)C3)cc(=O)c2cc1C (stereo not shown),15.3%

row,Structure (SMILES),"hERG current change (%, negative = inhibition) at 10uM"
1,COc1cccc(/C=N/NC(=O)c2ccc(COc3ccc(Cl)cc3Cl)o2)c1,5.86%
2,CCCC[n+]1ccn(C2=C([O-])c3ccccc3C(=O)/C2=N\S(=O)(=O)c2ccc(Br)cc2)c1,-20.7%
3,CCCCCCC(=O)NN1CCN(C)CC1,14.1%
4,Cc1ccc2c(c1)N(C(=O)CCC(=O)NCc1cccc(F)c1)CCO2,-5.21%
5,COCCCNC(=O)c1ccc([N+](=O)[O-])cc1,3.66%
6,CC(C)(C)S(=O)(=O)c1ccc2nc3c(n2c1)CCCC3,4.04%
7,COc1cc(OC)cc(C(=O)NC(C(=O)N2CCc3ccccc3C2)C(C)C)c1 (stereo not shown),15%
8,CC(C[N+](C)(C)C)OC(=O)C1(c2ccccc2)CCCC1 (stereo not shown),24.7%
9,CCN(CC)C(=O)C1CCCN(C(=O)c2oc3ccc(C)cc3c2C)C1 (stereo not shown),23.4%
10,COc1cc(OC)c(OC)cc1CN1CCc2ccccc2C1,-2.84%
11,CNC(=O)c1cc2c(ccc3ccccc32)oc1=N,-7.23%
12,Cn1c(=O)cc(SCC(=O)NCCCN2CCOCC2)c2ccc(Cl)cc21,-3.15%
13,COc1cccc(C(=O)NC2CCN(C(=O)N3c4ccccc4Sc4ccccc43)CC2)c1,-4.78%
14,COc1cc(CNCC(C)C)c(Br)cc1OCC(=O)NCc1ccccc1,-10.7%
15,N#Cc1c(N)c2ccccn2c1C(=O)c1ccc(Br)cc1,16%
16,C#CCOC(=O)C1C2C=CC(C2)C1C(=O)O (stereo not shown),-0.238%
17,CCc1cc(=O)oc2cc(OCC(=O)NCC3CCC(C(=O)O)CC3)ccc12 (stereo not shown),-5.13%
18,CCOc1ccc(N(CC(=O)NCCSCc2ccc(Cl)cc2)S(C)(=O)=O)cc1,4.71%
19,CC(C)C[C@@H](CO)N1CCNCCC1=O,23%
20,Cc1oc2c(Cl)c(Cl)c(O)c(CN(C)C)c2c1C(=O)c1ccc(Cl)cc1,-1.39%
21,O=C(CSc1nnc(-c2cccs2)n1C1CC1)NCC1CCCO1 (stereo not shown),-0.536%
22,CS(=O)(=O)c1ccc(Cl)c(NC(=O)c2cccc(N3C(=O)CCC3=O)c2)c1,0.801%
23,O=C(Nc1nnc(CCN2CCCCC2)s1)c1ccc(Br)cc1,-51.4%
